# Laboratory results reported in PubChem BioAssay AID1745847 (National Center for Advancing Translational Sciences (NCATS), 2022).
# About 670 (32%) of roughly 2,100 compounds were called active. Inconclusive results, whose numbers are uncertain, are shown with a selection of clear calls. Calls follow the shape of the dose curve; as a rule, active = well fitted inhibition curve with a large enough effect; inconclusive = small, poorly fitted or top-dose-only effect; inactive = no such curve, though single readings can be large or run the other way. A potency beside an inconclusive call is a rough fit, not a confirmed value.
# Assay: CMV-Luciferase Counterscreen for Inhibitors of ATXN expression; also: nearly all actives have a fitted effect of over 55% in size
# Details: HEK-293 CMV-luciferase reporter, luminescence, 24 h; series mostly up to 57.5 µM
# % is scaled to controls: 0 for no effect and ±100 for the full control effect; potency is read from the fitted curve at half-maximal effect; tags tell the direction and shape of the fitted curve.
Compound,Potency,"activity change, negative = inhibition"
Cc1ccc(S(=O)(=O)c2c(N)n(CC3CCOC3)c3nc4ccccc4nc23)cc1 (stereo not drawn),"inconclusive: 5.01 µM [inhibitor, partial curve, poor fit]",–
COc1cccc2c1C1COC3C4CC(C(=O)O)C(C(C2)N13)N4C (stereo not drawn),active: 12.6 µM,–
CC1CC(C)CN(CCCNC(=O)c2cc3c(s2)-c2ccccc2OC3)C1 (stereo not drawn),–,inactive: -23% [at 11.4 µM]
CCCCCCc1cc2cc(S(=O)(=O)c3ccc(C)cc3)c(=O)oc2cc1O,"inconclusive: 8.91 µM [inhibitor, single point]",–
COc1ccc(Oc2c(Cl)cnn(-c3ccccc3)c2=O)cc1,"inconclusive: 5.01 µM [inhibitor, single point]",–
COc1cc(/C=C/CN2CCC(C(=O)NC(c3ccc(F)cc3)c3ccc4ccccc4n3)CC2)ccc1OC(C)=O (stereo not drawn),"inconclusive: 12.6 µM [inhibitor, partial curve, poor fit]",–
C/C(=N\NC(=O)Cc1ccc(Cl)cc1)c1ccccc1O,active: 11.2 µM,–
CC(C)N(Cc1ccccc1)C(=O)/C=C/c1ccccc1[N+](=O)[O-],"inconclusive: 28.2 µM [inhibitor, partial curve, poor fit]",–
COc1ccc(C(=O)Nc2nc(-c3ccc(S(=O)(=O)N4CCOCC4)cc3)cs2)cc1,"inconclusive: 1.58 µM [inhibitor, partial curve, poor fit]",–
Cc1cccc(/C=N/NC(=O)c2c(-c3ccccc3)noc2C)c1O,"inconclusive: 0.794 µM [inhibitor, full curve, poor fit]",–
O=C(Nc1ccccc1C(=O)Nc1nnc(C(F)(F)F)s1)c1ccccc1Cl,"inconclusive: 3.16 µM [inhibitor, full curve, poor fit]",–
Cc1cc(SCC(=O)N/N=C/c2ccc(O)cc2O)nc2ccccc12,"inconclusive: 6.31 µM [inhibitor, partial curve, poor fit]",–
CC(=NNC(=O)c1ccncc1)c1ccc(O)cc1O,active: 11.2 µM,–
Nc1ccc2cc3[nH]c4cc(N)ccc4c3nc2c1,–,inactive: -29.2% [at 11.4 µM]
CC[n+]1c(/C=C/c2c[nH]c3ccccc23)ccc2cc(C)ccc21,active: 35.5 µM,–
CCN(c1ccccc1)S(=O)(=O)c1ccc(C(=O)N(CCCN(C)C)c2nc3c(C)cccc3s2)cc1,"inconclusive: 15.8 µM [inhibitor, partial curve, poor fit]",–
CCOC(=O)C(=CNc1ccc2c(c1)nnn2-c1ccc(Cl)cc1)C(=O)OCC,inactive,–
COC(=O)C(Cc1ccc(O)cc1)NC(=O)C(C)Oc1ccccc1 (stereo not drawn),inactive,–
